Assay [1] deals with HSkMC (human skeletal muscle cells). Put plainly: cytotoxicity call (relative viability < 0.9). As to conditions: 10 µM.
Assay [2] concerns HepG2. Briefly: cytotoxicity call (relative viability < 0.9). As to conditions: 10 µM.
The test system of assay [3] is S. aureus RN4220. Put plainly: growth inhibition call (relative growth <= 0.2). As to conditions: 50 µM.

Some of the results follow.

Consider `CC(C)NC(=O)[C@H]1CC[C@@H](n2c(NC(=O)c3ccc(F)cc3)nc3ccc(CN4CCC(C(C)(C)O)CC4)cc32)CC1`, for which the cytotoxicity call in assay [1] is “inactive”. Besides, the cytotoxicity call in assay [2] is “active”. In assay [3], the growth inhibition call was “inactive”.
Consider `C[C@@H]1CN([C@H](C)CO)C(=O)CCCn2nncc2CO[C@H]1CN(C)S(=O)(=O)c1cccc(C#N)c1`, for which the cytotoxicity call in assay [1] and in assay [2] was “inactive” in each case. Besides, in assay [3], the growth inhibition call was “inactive”.
As for `C[C@H]1CCCCO[C@H](CN(C)S(=O)(=O)c2ccc(F)cc2)[C@@H](C)CN([C@@H](C)CO)C(=O)c2cc(NC(=O)Nc3cccc4ccccc34)ccc2O1`, the cytotoxicity call in assay [1] and in assay [2] was “inactive” each time. In addition, the growth inhibition call in assay [3] was “inactive”.
As for `COc1ccc(NC(=O)N(C)C[C@@H]2Oc3ccc(NC(=O)Nc4cccc5ccccc45)cc3C(=O)N([C@H](C)CO)C[C@@H]2C)cc1`, the cytotoxicity call in assay [1] and in assay [2] was “inactive” throughout. Besides, the growth inhibition call in assay [3] was “inactive”.
In the case of `COc1cccc(CN(C)C[C@H]2OCc3ccccc3-c3c(n(C)c4ccccc34)C(=O)N([C@@H](C)CO)C[C@@H]2C)c1`, the cytotoxicity call in assay [1] and in assay [2] was “inactive” in each case. Further, the growth inhibition call in assay [3] is “inactive”.
Consider `C[C@@H]1CN([C@H](C)CO)C(=O)c2cc(NC(=O)Nc3cccc4ccccc34)ccc2O[C@@H]1CN(C)S(=O)(=O)c1ccccc1`, for which the cytotoxicity call in assay [1] and in assay [2] was “inactive” in each case. Besides, in assay [3], the growth inhibition call was “inactive”.
On to `C[C@@H]1CN([C@H](C)CO)C(=O)c2cc(NS(=O)(=O)c3cn(C)cn3)ccc2O[C@@H]1CN(C)S(=O)(=O)c1cn(C)cn1`, for which the cytotoxicity call in assay [1] and in assay [2] was “inactive” each time. The growth inhibition call in assay [3] was “inactive”.
Turning to `C[C@H](CO)N1C[C@H](C)[C@H](CN(C)Cc2ccc(Cl)c(Cl)c2)Oc2ccc(NC(=O)CCC(F)(F)F)cc2C1=O`, the cytotoxicity call in assay [1] and in assay [2] was “inactive” each time. In addition, the growth inhibition call in assay [3] was “inactive”.
As to `Cc1noc(C)c1S(=O)(=O)Nc1ccc2c(c1)C(=O)N([C@H](C)CO)C[C@H](C)[C@H](CN(C)S(C)(=O)=O)O2`, the cytotoxicity call in assay [1] and in assay [2] was “inactive” in each case. In addition, the growth inhibition call in assay [3] was “inactive”.
Regarding `C[C@H]1CN([C@@H](C)CO)C(=O)c2cccc(NC(=O)Nc3cccc4ccccc34)c2O[C@H]1CN(C)Cc1ccc(C(=O)Nc2ccccc2N)cc1`, the cytotoxicity call in assay [1] is “inactive”. Further, in assay [2], the cytotoxicity call was “active”. Also, the growth inhibition call in assay [3] is “inactive”.
As to `O=C(C[C@@H]1CC[C@@H]2[C@H](COC[C@H](O)CN2C(=O)Nc2cc(Cl)cc(Cl)c2)O1)N1CCOCC1`, the cytotoxicity call in assay [1] and in assay [2] was “inactive” each time. Besides, in assay [3], the growth inhibition call is “active”.
Consider `C[C@@H]1CCCCO[C@@H](CN(C)S(C)(=O)=O)[C@H](C)CN([C@H](C)CO)C(=O)c2cc(NS(=O)(=O)c3cn(C)cn3)ccc2O1`, for which the cytotoxicity call in assay [1] and in assay [2] was “inactive” throughout. In assay [3], the growth inhibition call was “inactive”.
For `CC=C(C)C(=O)O[C@H]1[C@H](OC(C)=O)[C@]2(CO)[C@H](O)C[C@]3(C)C(=CC[C@@H]4[C@@]5(C)CC[C@H](O[C@@H]6O[C@H](C(=O)O)[C@@H](O[C@@H]7O[C@H](CO)[C@@H](O)[C@H](O)[C@H]7O)[C@H](O)[C@H]6O[C@@H]6O[C@H](CO)[C@@H](O)[C@H](O)[C@H]6O)[C@](C)(CO)[C@@H]5CC[C@]43C)[C@@H]2CC1(C)C`, the cytotoxicity call in assay [1] and in assay [2] was “active” throughout. In addition, the growth inhibition call in assay [3] was “inactive”.
With `C[C@@H](NC(=O)C[C@H]1CC[C@H](NC(=O)CN2CCOCC2)[C@H](CO)O1)c1ccccc1`, the cytotoxicity call in assay [1] and in assay [2] was “inactive” in each case. In addition, the growth inhibition call in assay [3] is “inactive”.
As to `CCNC(=O)C[C@@H]1CC[C@H]2[C@@H](COC[C@H](O)CN2C(=O)Nc2c(C)noc2C)O1`, the cytotoxicity call in assay [1] and in assay [2] was “inactive” in each case. The growth inhibition call in assay [3] was “inactive”.
As to `CN1CCN([C@H](CNC(=O)C(=O)NCCN2CCOCC2)c2ccc(N(C)C)cc2)CC1`, the cytotoxicity call in assay [1] and in assay [2] was “inactive” each time. The growth inhibition call in assay [3] was “inactive”.
Regarding `C[C@@H]1CN([C@@H](C)CO)S(=O)(=O)c2ccc(-c3cccnc3)cc2O[C@@H]1CN(C)C(=O)NC1CCCCC1`, the cytotoxicity call in assay [1] and in assay [2] was “inactive” throughout. The growth inhibition call in assay [3] was “inactive”.
Turning to `CNC[C@H]1Oc2cc(C#CCN(C)C)ccc2S(=O)(=O)N([C@H](C)CO)C[C@H]1C`, the cytotoxicity call in assay [1] and in assay [2] was “inactive” throughout. Moreover, in assay [3], the growth inhibition call is “inactive”.
For `C[C@@H]1CN([C@H](C)CO)C(=O)c2cc(NC(=O)Nc3ccccc3)ccc2O[C@H]1CN(C)Cc1ccc(C(F)(F)F)cc1`, the cytotoxicity call in assay [1] is “inactive”. Further, in assay [2], the cytotoxicity call was “active”. For the same compound, the growth inhibition call in assay [3] was “inactive”.
For the compound `C[C@@H]1CN([C@@H](C)CO)C(=O)c2cc(NS(=O)(=O)c3ccc(Cl)cc3)ccc2O[C@H]1CN(C)S(=O)(=O)c1cn(C)cn1`, the cytotoxicity call in assay [1] and in assay [2] was “inactive” each time. The growth inhibition call in assay [3] is “inactive”.
For `COCC#Cc1ccc2c(c1)O[C@H](CN(C)C(=O)COC)[C@H](C)CN([C@H](C)CO)S2(=O)=O`, the cytotoxicity call in assay [1] and in assay [2] was “inactive” in each case. For the same compound, the growth inhibition call in assay [3] was “inactive”.
`O=C(C[C@H]1C[C@@H]2c3cc(NS(=O)(=O)c4ccccc4)ccc3O[C@@H]2[C@H](CO)O1)NC1CCCCC1`: the cytotoxicity call in assay [1] and in assay [2] was “inactive” throughout. Moreover, the growth inhibition call in assay [3] is “inactive”.
On to `COc1ccc(S(=O)(=O)N(C)C[C@@H]2Oc3c(NC(=O)Nc4cccc5ccccc45)cccc3C(=O)N([C@@H](C)CO)C[C@H]2C)cc1Cl`, for which the cytotoxicity call in assay [1] and in assay [2] was “inactive” in each case. Further, in assay [3], the growth inhibition call is “inactive”.
On to `COc1ccc(S(=O)(=O)N(C)C[C@@H]2Oc3ccc(NS(=O)(=O)c4ccccc4)cc3C(=O)N([C@H](C)CO)C[C@@H]2C)cc1`, for which the cytotoxicity call in assay [1] and in assay [2] was “inactive” throughout. Also, the growth inhibition call in assay [3] is “inactive”.
For the compound `Cc1ccc(S(=O)(=O)Nc2ccc3c(c2)C(=O)N([C@@H](C)CO)C[C@@H](C)[C@@H](CN(C)C(=O)c2ccccc2)OCCCC[C@@H](C)O3)cc1`, the cytotoxicity call in assay [1] and in assay [2] was “inactive” in each case. Also, in assay [3], the growth inhibition call is “inactive”.
On to `C[C@H]1CN([C@@H](C)CO)C(=O)Cc2cc(NC(=O)Nc3cccc(C(F)(F)F)c3)ccc2O[C@H]1CN(C)S(=O)(=O)c1ccc(Oc2ccccc2)cc1`, for which the cytotoxicity call in assay [1] was “inactive”. Further, in assay [2], the cytotoxicity call was “active”. Besides, the growth inhibition call in assay [3] was “inactive”.

These data come from the antibiotic and cytotoxicity screens of Wong et al. (2023).
